Like-named read-outs stand apart in the source and are kept apart here.
Assays:
[1] = tested on: breast cancer patients; assay type: in vivo, human
[2] = tested on: breast cancer patients
[3] = 5-year breast cancer survival, Ala/Ala vs Val/Val & Val/Ala (ref.), recessive model
[4] = 5-year breast cancer survival, Ala/Ala vs Val/Val & Val/Ala (ref.), recessive model, multivariate Cox regression
[5] = 5-year breast cancer survival, Ala/Ala vs Val/Val (ref.), multivariate Cox regression
[6] = 5-year breast cancer survival, Ala/Ala vs Val/Val (ref.), patients receiving the drug-based chemotherapy
[7] = 5-year breast cancer survival, Val/Ala & Ala/Ala vs Val/Val (ref.), dominant model
[8] = 5-year breast cancer survival, Val/Ala & Ala/Ala vs Val/Val (ref.), dominant model, multivariate Cox regression
[9] = 5-year breast cancer survival, Val/Ala vs Val/Val (ref.), multivariate Cox regression
[10] = 5-year breast cancer survival, Val/Ala vs Val/Val (ref.), patients receiving the drug-based chemotherapy
[11] = 10-year breast cancer survival, Ala/Ala vs Val/Val & Val/Ala (ref.), recessive model, adjusted Cox regression
[12] = 10-year breast cancer survival, Ala/Ala vs Val/Val & Val/Ala (ref.), recessive model, patients receiving the drug-based chemotherapy
[13] = 10-year breast cancer survival, Ala/Ala vs Val/Val (ref.), Cox regression adjusted for age, study site, race, tumor size, nodes, grade, ER, p53
[14] = 10-year breast cancer survival, Ala/Ala vs Val/Val (ref.), patients receiving the drug-based chemotherapy
[15] = 10-year breast cancer survival, Val/Ala & Ala/Ala vs Val/Val (ref.), dominant model, adjusted Cox regression
[16] = 10-year breast cancer survival, Val/Ala & Ala/Ala vs Val/Val (ref.), dominant model, patients receiving the drug-based chemotherapy
[17] = 10-year breast cancer survival, Val/Ala vs Val/Val (ref.), Cox regression adjusted for age, study site, race, tumor size, nodes, grade, ER, p53
[18] = 10-year breast cancer survival, Val/Ala vs Val/Val (ref.), patients receiving the drug-based chemotherapy

Structure (SMILES) | HR (95% CI), univariate [2, 3] | HR (95% CI), multivariate [2, 4] | HR (95% CI), multivariate [2, 5] | HR (95% CI), univariate [2, 6] | HR (95% CI), univariate [2, 7] | HR (95% CI), multivariate [2, 8] | HR (95% CI), multivariate [2, 9] | HR (95% CI), univariate [2, 10] | HR (95% CI), multivariate [2, 11] | HR (95% CI), univariate [2, 12] | HR (95% CI), multivariate [2, 13] | HR (95% CI), univariate [2, 14] | HR (95% CI), multivariate [2, 15] | HR (95% CI), univariate [2, 16] | HR (95% CI), multivariate [2, 17] | HR (95% CI), univariate [2, 18] | other results
COc1cccc2c1C(=O)c1c(O)c3c(c(O)c1C2=O)C[C@@](O)(C(=O)CO)C[C@@H]3O[C@H]1C[C@H](N)[C@H](O)[C@H](C)O1 [Doxorubicin] | 2.56 (1.50-4.38) | 2.42 (1.32-4.44) | 3.07 (1.13-8.29) | 2.78 (1.39-5.56) | 1.53 (0.84-2.77) | 1.14 (0.60-2.16) | 0.85 (0.42-1.72) | 1.16 (0.61-2.21) | 2.44 (1.33-4.47) | 2.57 (1.53-4.35) | 3.16 (1.18-8.51) | 2.76 (1.41-5.40) | 1.09 (0.58-2.04) | 1.50 (0.84-2.68) | 0.83 (0.41-1.64) | 1.13 (0.60-2.10) | deaths among Ala/Ala carriers ([1]; doxorubicin-treated, among 11 patients, homozygous Ala/Ala, very poor survival): 6; deaths among Val/Val carriers ([1]; doxorubicin-treated, among 21 patients, homozygous Val/Val, very good survival): 1; deaths among heterozygous carriers ([1]; doxorubicin-treated, among 38 patients, Val/Ala, intermediate survival): 8; RR of breast cancer survival by MnSOD genotype, multivariate Cox analysis ([1]; patients that received doxorubicin treatment (n=70), mostly with cyclophosphamide (AC therapy), genotype entered as Val/Val, Val/Ala, Ala/Ala, 95% CI: 1.97-16.1): 5.63; HR (95% CI), multivariate ([2]; 5-year breast cancer survival, Ala/Ala vs Val/Val (ref.), multivariate Cox regression, listed as doxorubicin): 3.07; HR (95% CI), multivariate ([2]; 10-year breast cancer survival, Ala/Ala vs Val/Val (ref.), Cox regression adjusted for age, study site, race, tumor size, nodes, grade, ER, p53, listed as doxorubicin): 3.16
O=c1[nH]cc(F)c(=O)[nH]1 [5-Fluorouracil, 5-fluorouracil] | 1.97 (1.05-3.73) | 2.74 (1.32-5.68) | 7.22 (1.77-29.4) | 5.18 (1.50-17.8) | 3.78 (1.16-12.2) | 3.79 (1.11-13.0) | 2.24 (0.61-8.19) | 3.10 (0.92-10.4) | 2.75 (1.40-5.39) | 1.90 (1.05-3.42) | 6.85 (1.86-25.3) | 4.63 (1.56-13.72) | 3.84 (1.30-11.4) | 3.49 (1.25-9.74) | 2.39 (0.76-7.55) | 2.95 (1.03-8.50) | HR (95% CI), multivariate ([2]; 5-year breast cancer survival, Ala/Ala vs Val/Val (ref.), multivariate Cox regression, listed as 5-FU): 7.22; HR (95% CI), multivariate ([2]; 10-year breast cancer survival, Ala/Ala vs Val/Val (ref.), Cox regression adjusted for age, study site, race, tumor size, nodes, grade, ER, p53, listed as 5-FU): 6.85

Source: patent publication US7985561B2 (priority 2006, dated 2011)
